{"source": "PubChem BioAssay AID686979", "about": "(National Center for Advancing Translational Sciences (NCATS), 2013)", "note": "Among all 420,000 compounds or so, about 50,000 (12%) were called active. Inconclusive results, whose numbers are uncertain, are shown with a selection of clear calls. Calls follow the shape of the dose curve; as a rule, active = well fitted inhibition curve with a large enough effect; inconclusive = small, poorly fitted or top-dose-only effect; inactive = flat fitted curve, though single readings scatter. Potencies of inconclusive entries are left out as doubtful fits. Potency is read from the fitted curve at half-maximal effect; tags tell the direction and shape of the fitted curve.", "data": [{"experiment": "qHTS for Inhibitors of human tyrosyl-DNA phosphodiesterase 1 (TDP1): qHTS in cells in presence of CPT; also: nearly all actives have a fitted effect of over 55% in size", "details": "chicken DT40 Tdp1-/-;hTDP1 cells + 20 nM CPT, ATP luminescence, 48 h; series mostly up to 46.2 µM", "summary_of_the_method": "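Cell growth measured by CellTiter-Glo luminescence after a minimum 48 h, 37 C compound exposure with 20 nM CPT in Tdp1-knockout DT40 cells stably expressing hTDP1, seeded 400/well; qHTS titration format.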", "values": [{"compound": "COc1ccccc1NC(=O)c1c(C)cc(C)nc1SCC(=O)Nc1ccc(C)cc1", "Potency": "inconclusive [inhibitor, single point]"}, {"compound": "CCC(=O)c1ccc2c(c1)N(CCCN1CCN(CCO)CC1)c1ccccc1S2", "Potency": "active: 2.99 µM"}, {"compound": "O=[N+]([O-])c1ccc(O)c(CN2CCCCCC2)c1", "Potency": "inactive"}, {"compound": "COc1ccc(NCc2ccccc2[N+](=O)[O-])cc1OC", "Potency": "active: 16.4 µM"}, {"compound": "O=C(Cn1c2ccccc2c(=O)c2ccccc21)N/N=C/c1cc([N+](=O)[O-])ccc1N1CCCCC1", "Potency": "inconclusive [inhibitor, single point]"}, {"compound": "O=C(CN1CCCCC1)Nc1ccc(C(F)(F)F)cc1Cl", "Potency": "inactive"}, {"compound": "CCCOC(=O)c1c(NC(=O)/C=C/c2cnn(C)c2C)sc(C(=O)OCC)c1C", "Potency": "inconclusive [inhibitor, single point]"}, {"compound": "COc1ccc(CC2c3cc(OC)c(OC)cc3CC[N+]2(C)CCC(=O)OCCCCCOC(=O)CC[N+]2(C)CCc3cc(OC)c(OC)cc3C2Cc2ccc(OC)c(OC)c2)cc1OC", "note": "(stereo not given)", "Potency": "inconclusive [inhibitor, partial curve, poor fit]"}, {"compound": "CCOc1cc(C(Nc2cc(C)ccn2)c2ccc3cccnc3c2O)ccc1OC", "note": "(stereo not given)", "Potency": "inconclusive [inhibitor, single point]"}, {"compound": "Cc1ccc2[nH]c3c(NCc4ccccc4)ncnc3c2c1", "Potency": "active: 20.6 µM"}, {"compound": "Cc1ccc(C)c(S(=O)(=O)c2c(C)cc(C)nc2Cl)c1", "Potency": "inconclusive [inhibitor, single point]"}, {"compound": "CC(C)C[C@@H](C(=O)NCC1CCCO1)N1C(=O)N2CCc3c([nH]c4ccccc34)[C@@]2(C)C1=O", "note": "(stereo not given in full)", "Potency": "inconclusive [inhibitor, single point]"}, {"compound": "O=C(/C=C/c1cnc2ccccc2n1)NC12CC3CC(CC(C3)C1)C2", "Potency": "inconclusive [inhibitor, single point]"}, {"compound": "COc1ccc(NC(C#N)c2ccccc2OCc2ccccc2)cc1", "note": "(stereo not given)", "Potency": "inconclusive [inhibitor, single point]"}, {"compound": "C=CCNC(=O)c1ccccc1NC(=O)c1ccccc1N(C)S(C)(=O)=O", "Potency": "inactive"}, {"compound": "COc1ccc(C(CCN(Cc2ccc(OC)c(OC)c2)C(C)=O)C(C)C)cc1", "note": "(stereo not given)", "Potency": "active: 18.4 µM"}, {"compound": "COc1ccc(-c2csc(NC(=S)NC(=O)/C=C/c3ccco3)n2)cc1OC", "Potency": "active: 4.61 µM"}, {"compound": "CC(=O)NCCNc1ncnc2ccc(-c3ccccc3C)cc12", "Potency": "inconclusive [inhibitor, single point]"}, {"compound": "CCN(CC)S(=O)(=O)c1ccc(NCc2ccccc2)nc1", "Potency": "inactive"}, {"compound": "COc1ccc(-c2n(CC(=O)OC3CC(C)CCC3C(C)C)c3ccccc3[n+]2C)cc1", "note": "(stereo not given)", "Potency": "active: 0.461 µM"}, {"compound": "Cc1ccc(S(=O)(=O)N2CCCN(S(=O)(=O)c3ccc4c(c3)OCCO4)CC2)cc1", "Potency": "active: 11.2 µM"}, {"compound": "Cc1ccc(S(=O)(=O)N2CCC(C(=O)N[C@@H](Cc3ccccc3)C(=O)O)CC2)cc1", "Potency": "inactive"}, {"compound": "C/C=C/c1cccc(-c2nc(C(=O)NC3CCC3)cc3c2[C@@H](CCO)N(S(=O)C(C)(C)C)C3)c1", "note": "(stereo not given in full)", "Potency": "inconclusive [inhibitor, single point]"}, {"compound": "COc1ccccc1NC(C)C(=O)N/N=C/c1ccccc1OCc1cccc(Br)c1", "note": "(stereo not given)", "Potency": "inconclusive [inhibitor, single point]"}, {"compound": "O=C(CCS(=O)(=O)c1ccccc1)Nc1ccccc1F", "Potency": "inactive"}, {"compound": "COc1cccc(NC(=S)N2CCC(C(=O)c3ccc(F)cc3)CC2)c1", "Potency": "inconclusive [inhibitor, single point]"}, {"compound": "Cc1ccc(C#N)c(SCCN2CCCCC2)n1", "Potency": "inactive"}, {"compound": "COc1ccc(C(=O)NC(=S)Nc2ccc(CN3CCOCC3)cc2)cc1OC", "Potency": "inconclusive [inhibitor, single point]"}, {"compound": "O=C(COc1ccc(Br)cc1)N1CCN(c2ccccc2)CC1", "Potency": "inconclusive [inhibitor, single point]"}, {"compound": "N#Cc1cccc(NC(=O)c2cc(C3CCCCN3C(=O)c3ccccn3)on2)c1", "note": "(stereo not given)", "Potency": "active: 23.1 µM"}, {"compound": "CC(=O)NC1=NN(C(C)=O)C(c2ccccc2)S1", "note": "(stereo not given)", "Potency": "inconclusive [inhibitor, single point]"}, {"compound": "CC(C)N(C(=O)[C@H]1CC(CC(=O)NCc2cccc(C(F)(F)F)c2)C(=O)N2CCc3c([nH]c4ccccc34)[C@]12C)C(C)C", "note": "(stereo not given in full)", "Potency": "active: 18.4 µM"}, {"compound": "Cc1ccc(OCCSCc2nnc(NC(=O)Nc3cccc(Cl)c3)s2)cc1", "Potency": "active: 4.61 µM"}, {"compound": "CCOC(=O)c1ccc(N(CCC2CO2)S(=O)(=O)c2ccc(C)cc2)cc1", "note": "(stereo not given)", "Potency": "inconclusive [inhibitor, partial curve]"}, {"compound": "Cc1ccc2c(CN3CCN(Cc4ccccc4)CC3)cc(=O)oc2c1C", "Potency": "inconclusive [inhibitor, single point]"}, {"compound": "COc1ccc(-c2cccc(-c3cc(=O)oc4ccc(C(C)(C)C)cc34)c2)cc1", "Potency": "inconclusive [inhibitor, single point]"}, {"compound": "Cc1ccc(N(C)S(=O)(=O)c2cccc(C(=O)N(C)Cc3cnn(-c4ccccc4)c3)c2)cc1", "Potency": "inconclusive [inhibitor, single point]"}, {"compound": "Cc1nc(-c2cccc(NS(=O)(=O)c3ccccc3)c2)cs1", "Potency": "inconclusive [inhibitor, single point]"}, {"compound": "Cc1cccc(C)c1NC(=O)C(=O)NCC(c1cccnc1)N1CCc2ccccc21", "note": "(stereo not given)", "Potency": "active: 14.6 µM"}, {"compound": "CCc1nc2c(OCCOc3ccc(F)cc3)cccn2c1N(C=O)Cc1ccccc1", "Potency": "active: 20.6 µM"}, {"compound": "COC(=O)c1sc(-c2ccccc2)cc1NC(=O)c1cccc(Cl)c1", "Potency": "inactive"}, {"compound": "CCC(C)(C)NC(=O)C(c1sccc1C)N(Cc1ccco1)C(=O)c1csnn1", "note": "(stereo not given)", "Potency": "active: 16.4 µM"}, {"compound": "O=C1NC(=S)S/C1=C\\c1cccc([N+](=O)[O-])c1", "Potency": "inconclusive [inhibitor, partial curve]"}, {"compound": "Cc1cccc(C)c1NC(=O)CN1C(=O)N(C)Cc2ccccc21", "Potency": "inactive"}, {"compound": "COc1ccc(CCNC(=O)c2cc(COc3c(F)cccc3F)on2)c(OC)c1", "Potency": "inconclusive [inhibitor, single point]"}]}]}
